# ± gives the standard deviation of the averaged measurements. The list shows a part of the results.
# Test system: PfAP2-LT AP2 domain (GST-tagged)
# Assay: gcPBM binding intensity (ln(normalized median fluorescence intensity)); higher = stronger DNA binding
# In short: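 Binding intensity is the highest Masliner-normalised natural-log median intensity over replicate spots in either probe orientation. To obtain it, GST-tagged P. falciparum DNA-binding domains made in E. coli were incubated for 1 h on an Agilent 4 × 180k array of primer-extended double-stranded 36-bp intergenic genomic probes plus negative controls. Detection used Alexa488 anti-GST antibody with scanning at 488 nm.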
row,Sequence,gcPBM binding intensity (ln)
1,GTATTCATTCCTTGAGTGCAATTGCAATAAATAAAA,8.88 ± 0.45
2,CATATTAAGATGTGTACACATTTTTATTTTTTTTTT [CACACA_site4425],8.74 ± 0.5
3,TAAAATAAAAAGTTTACACACATATATAACTTTAAT [CACACA_site6456],8.73 ± 0.37
4,CCCCTATAAATAGGGTGTACTAATAAATATTTTTAA [XGTACX_site1244],8.955 ± 0.05
5,ACGGGCGACACATAAGTGCGCAAAAAAAAAAAAATA [GTGCAC_site9688],9.05 ± 0.65
6,GAAAAGTATAAAAAACGTACAAGTTTTATTTTCACA [XGTACX_site4604],8.61 ± 0.48
7,TTTTATAAAACATGTAGTACATGAAAAAAAAAATTT [XGTACX_site1626],8.52 ± 0.35
8,AAAATACAGAAACACACACACACACCCATATATATA [CACACA_site3559],10.31 ± 0.014
9,ATGTTTCTATAGATTTGTACATATTTCATATGAATA [XGTACX_site1053],8.89 ± 0.38
10,TTATTTTTTGTATGAACACACAACTTAATTATGATG [CACACA_site2448],8.89 ± 0.56
11,TCTTTTCTTTTGTGTGTGCACATATAAGCATGAAAC [GTGCAC_site9910],9.38 ± 0.42
12,TTTTTTAATTAATTACCTTTGAATGTGTATTAGGAC [GTGCAC_negctrl_site651],8.56 ± 0.48
13,TTTTACAAATATTTCTGTACACATTCTCATATAATT [XGTACX_site1974],8.87 ± 0.47
14,TAAAACAAAATGGTAACACACACATATATATATATA [CACACA_site8590],9.87 ± 0.15
15,ATAGCATTTCACAAATGTACATAAAAAAATAAAAAT [XGTACX_site402],8.93 ± 0.5
16,AAATGACGAAATAAAATCATAAATTAAAATAAATAA [CACACA_negctrl_site655],8.68 ± 0.59
17,AATATATAAATATATATAAATAAATATATATATAAA [CACACA_negctrl_site49],8.59 ± 0.5
18,TCCTATCATTTATATTTTACTACATAATATTGATAA [GTGCAC_negctrl_site286],8.59 ± 0.4
19,AAATGGAAATTAATATGTACATATTTATAAGTATGA [XGTACX_site1774],8.73 ± 0.45

row,Sequence,gcPBM binding intensity (ln)
1,ACATCCTATAAATAGAGTACGTAAATTATAATACAC [XGTACX_site5338],8.97 ± 0.32
2,TATATATATATATATTGTACAAAGATTAATATATAA [XGTACX_site8433],8.74 ± 0.29
3,ACTTAATTTTTTTATTGTACATGTAAATGAGGGAAA [XGTACX_site6305],8.51 ± 0.39
4,TATTTTAATAAGAATAAATGAAATGAAATGAAATAT [CACACA_negctrl_site823],8.5 ± 0.44
5,ATCAAAGATAAATTTACACACATATAAATATAAATA [CACACA_site7409],9.07 ± 0.49
6,GTTTTTATCATATCATGTACGTATTTTATTTTTTTT [XGTACX_site8643],9.13 ± 0.45
7,CTTCTGGACAGGAATGCACACATTTTTTTTTCTTTT [CACACA_site1807],8.9 ± 0.47
8,ATGAATTTTTCTCTACAAAAGGATATAATAAAAATA [XGTACX_negctrl_site461],8.21 ± 0.35
9,TAGTGTGCCAAATTAGCACACACATATATACATGAA [CACACA_site8910],9.6 ± 0.36
10,TTTTCTAATTAATATTGTACATAAATGTATATATAT [XGTACX_site4749],8.56 ± 0.44
11,AAAAAAAAAAAAAATACACACACACCGATATATATA [CACACA_site8142],9.775 ± 0.092
12,ATACATATAATAATATGTACATATAATTATATATAT [XGTACX_site913],8.86 ± 0.35
13,TATAACACACAATGATGTACATTACATTATTTTTTA [XGTACX_site2076],8.79 ± 0.45
14,AATATAATATACATATGTACATATATATATATATAT [XGTACX_site8218],9.48 ± 0.028
15,TAATATAAATGAAAGGTGCTTTTGCTTTCTTTTTTT,8.35 ± 0.54
16,ATATATATATATATGTGTACATATTTTTTTGAAGTG [XGTACX_site248],9.565 ± 0.078
17,TTTTCTATATAACAACGTACATTTATTATATTATAA [XGTACX_site6148],8.49 ± 0.45
18,TAATATATTTTTAACATGCACTGTATTTTAATATAT,8.76 ± 0.4
19,TATACAAATATATATGCACACACATATATGTATATG [CACACA_site9007],9.3 ± 0.3

row,Sequence,gcPBM binding intensity (ln)
1,TAATTAAAGTTATCTACACACCTTTATAGATATATA [CACACA_site7778],8.71 ± 0.39
2,TATAAAACAAATATATGTACATATCATAGTATAATA [XGTACX_site2965],8.85 ± 0.45
3,ACAAGTATTCCTTTTGCACACCTTTCTGCACCTTAT [CACACA_site3873],9.54 ± 0.4
4,ATTATGAATTTAAGACGTACAAAAAATTTTTATTCA [XGTACX_site5682],8.44 ± 0.38
5,ATTAAAATAATACGTACACACATGTATAATACATAT [CACACA_site1005],9.22 ± 0.32
6,AAATACTTATTCGTGGTGCAACAATTTTAAAAATTA,8.62 ± 0.4
7,AATAATATATTATATGCATGTGTATAATTTGATATA [TGCATGCA_site1058],8.79 ± 0.35
8,TTTGGTTATTTGACCTGTACACATTTAATTATTTTT [XGTACX_site5170],8.85 ± 0.4
9,CAAAGGAAATGGTGTACACAATTTTTCCTTTTTCGT [CACACA_site4800],8.83 ± 0.35
10,AGCAAGACGGGGTGCACACAAACTAATATGCCGAAT [CACACA_site159],9.53 ± 0.52
11,TATTACATAATATATGTACACACGCAAATACTTATA [CACACA_site7994],8.98 ± 0.27
12,TAACAACGATACAATTGTACAAATTATATATATATA [XGTACX_site4687],9.39 ± 0.2
13,CAAAAAAAGTTATACACACACACACGGATATAAATA [CACACA_site6619],9.91 ± 0.085
14,TTTTTTTTTTTTTTTTGTACATAATTCCATATTTTT [XGTACX_site1789],8.62 ± 0.5
15,TGATCTTTACACATATTATATATATATAAAAAAAAA [XGTACX_negctrl_site360],8.38 ± 0.49
16,AAAAAAAAAAGAAACACACACATATAGATTTATAAC [CACACA_site6927],9.27 ± 0.36
17,AATCTAGGTATTTATACACACTAAAATAATATACGA [CACACA_site4515],8.88 ± 0.38
18,AAAAAATTAACCGTAACACACACACCGATATATATA [CACACA_site9312],9.73 ± 0.2
19,ATTTAAATAATATTCACACACAAAATTAAATTTTAA [CACACA_site6246],8.82 ± 0.45

# Reference: the supplement of paper PMC11417369
